The chains are these.
B1: CPEB3 Ribozyme (parent)
chain: UAACAGGGGGCCACAGCAGAAGCGUUCACGUCGCAGCCCCUGUCAGAUUCUGGUGAAUCUGCGAAUUCUGCUGUAUAUCUC

Read counts are not given, so values of variants with three or more changes are uncertain.

The variants in this data set derive from B1. The data set is described as follows: self-cleavage, relative activity (ratio to wild type); higher = more cleavage; in vitro, sequencing. A digest of the protocol: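 Relative activity was defined as the cleaved/total read fraction for a variant divided by the same fraction for the unmutated ribozyme. CPEB3 self-cleaving ribozyme libraries were made by rounds of error-prone PCR, barcoded, and transcribed in vitro with T7 RNA polymerase for 5 hours at 37°C, and cleavage ran through transcription plus a 15 min DNase I step before EDTA. Illumina sequencing of template-switched reverse transcripts gave the reads, and DNA sequencing mapped the barcodes. Averages come from three batches, using variants with at least 5 reads.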
For the variant UAACAGGGGGUCACAGCAGGAGCGUUCGCGUCGCAGCCCCCGUCAGAUUCUGGUGAAUCUGCGAAUUCUGCUGUAUAUCUC [C11U A20G A28G U41C], the self-cleavage was found to be 0.32. With UAACAGGGGGUCACGGCAGAAGCGUUCACGUCGCAGCCCCUGUCAGACUCUGGUGAAUCUGCGAAUUCUGCUGUAUAUCUC [C11U A15G U48C] the figure was 0.29. Take UAACAGGGGGUCACUGCAGAAGCGUUCACGUCGGAGCCCCUGUCAGAUUCUGGUGAAUCUGCGAAUUCUGCUGUAUAUCUC [C11U A15U C34G]: the self-cleavage is 0.5.

Turning to UAACAGGGGGUCGCAGCAGAAGCGUUCACGUCGCAGCGCCUGUCAGAUUCUGAUGAAACUGCGAAUUUUGCUGUAUAUCUC [C11U A13G C38G G53A U58A C68U], the self-cleavage worked out at 0.04. On to UAACAGGGGGUCUCAGCAGAAGCGUUCACGUCGCAGCCCGUGUCAGAUUCUGGUGAAUCUGCGAGCUCUGCAGUAUAUCUC [C11U A13U C40G A65G U66C U72A], for which the self-cleavage amounted to 0.03. UAACAGGGGGUCUCAGCAGAGGCGUCCACGUCGCGGCCCCUGUCAGAUUCUGGUGAAUCUGCGAAUUCUGCUGUAUAUCUC [C11U A13U A21G U26C A35G]: the self-cleavage came out at 0.16. On to UAACAGGGGGUCACAGCAGUGGCGUUCACGUCGCAGCCCCUGUCAGAUUCUGGUCAAUCUGCGGAUUCUGCUGUAUAUCUC [C11U A20U A21G G55C A64G], for which the self-cleavage turned out to be 0.13. The value for UAACAGGGGGGCACAGCAGAAGCGUUCACGUCGCAGCCCCUGUCAGAUUCUGGUGAAUCUGCGAAUUCCGCUGUAUAUCAC [C11G U69C U80A] was 0.32; that for UAACAGGGGGUCUCAGCAGAAGCGUUCACGUCGCAGCCCCUGUCAGAUUUUGGUGAAUCUGCGAGUUCUGCUGUAUAUCUC [C11U A13U C50U A65G] was 0.13. For UAACAGGGGGUCACUGCUGAAGCGUUCACGUCGCAGACCCUGUCAGAUUCUGGUGAAUCUGCGAAUUCUGCUGUAUAUCUC [C11U A15U A18U C37A], the self-cleavage stood at 0.05. With UAACAGGGGGUCUCAGCAGAAGCGUUCACGUCGCAUCCCCUGUCAGAUUCUGGUGAAUCUGCGAAUUCUGCUGUAUGUCUC [C11U A13U G36U A77G] the figure was 0.3; with UAACAGGGGGUCACAGCGGAUGCGUACACGUCGCAGCCCCUGUCAGUUUCUGGUGAAUCUGCGAAUUCUGCUGUAUAUCUC [C11U A18G A21U U26A A47U], 0.09; with UAACAGGGGGGCACAGCAGAAGCGUUCACGUCGCAGCCCCUGUCAGAUUCUGGUGAAUCUGCGAAUUCGGCUGUAUAUCCC [C11G U69G U80C], 0.34. On to UAACAGGGGGUCACAGCUGAAGCGUUCACGUCGCAGCCCCAGUCAGAUUCCGGUGGAUCUGCGAAUUCUGCUGUAUAUCUC [C11U A18U U41A U51C A56G], for which the self-cleavage stood at 0.19. As for UAACAGGGGGUCGCAGCAGAAGCGUUCACGUCGCAGCCCCCGUCAGACUCUGGUGUUUCUGCGAAUUCCGCUGUAUAUCUC [C11U A13G U41C U48C A56U A57U U69C], the self-cleavage was found to be 0.28. The value for UAACAGGGGGUCACAGCAGGAGCGUUCACGUCGCAGCCCCUGUCAGAUUCUGGUGAAUCUGCGAAUCCUGUUGUAUAUCUC [C11U A20G U67C C71U] was 0.11; that for UAACAGGGGGUCACAGCAGGAGCGUUCGCGUCGCAGCCCCUGUCUGAUCCUGGUGAAUCUGCGAAUUCUGCUGUAUAUCUC [C11U A20G A28G A45U U49C] was 0.18; that for UAACAGGGGGUCACCGCAGAAGCGUUCACGUCGCAGCCCCUGUCUGAUAGUGGUGAGCCUGCGAAUUCUGCUGUAUAUCUC [C11U A15C A45U U49A C50G A57G U58C] was 0.05. Turning to UAACAGGGGGUCGCAGCAGAAGCGUUCACGUCGCAGCCCCUGUCAGAUUCAGGCGAAUCUGCGAAUUCUGCUGUAUAUCUC [C11U A13G U51A U54C], the self-cleavage was found to be 0.29. Consider UAACAGGGGGUCACGGCAGAAGCGUUCACGUCGCAGCCCCUGUCAGAUCCUGGUGAAUCUGCGAAUUCUGCUGUAUAUCUC [C11U A15G U49C], for which the self-cleavage is 0.07.

As to UAACAGGGGGUCACAGCUGAAGCGUUCACGUCGCAGCCCCUGUCAGAUUCUGAUGAAUCUGCGAAUUCUGCUGUUUAUCUC [C11U A18U G53A A75U], the self-cleavage worked out at 0.11. With UAACAGGGGGUCACAGCGGAAGCGCUCACGUCGCAGCCCCUGUCAUAUUCUGCUGUAUCCGCGAAUUCUGCUGUAUAUCUC [C11U A18G U25C G46U G53C A56U U60C] the figure was 0.03; with UAACAGGGGGUCUCAGCAGAAGCGUUCACGUCGCAGCCCCAGUCAGAUUCUGGUGAAUCAGCGAACUCUGCUGUAUACCUC [C11U A13U U41A U60A U66C U78C], 0.04. As to UAACAGGGGGUCACAGCAGCAGGGUUCACGUCGCAGCCCCUGUCAGAUUCUGGUGGGUCUGCGAAUUCUGCUGUAUAUCUC [C11U A20C C23G A56G A57G], the self-cleavage stood at 0.05. In the case of UAACAGGGGGUCGCAGCAGAAGCGUUCACAUCGCAGCCCCUGUCAGAUUCUGGUGAAUCUGCGAAUUCUGCUGUAUAUCUC [C11U A13G G30A], the self-cleavage amounted to 0.38. The value for UAACAGGGGGUCACUGCAGAAGCGUUCACGUCGCAGCCCGUGUCAGAUUCUGGUGAAUCUGCGAGUUCUGCUAUAUAUCUC [C11U A15U C40G A65G G73A] was 0.25; that for UAACAGGGGGUCACUGCAGGAGCGUUCACGUCGCAGCCCCUGUCAGAUACUGGUGAAUCUGCGAAUUCUGCUGUAUAUCAC [C11U A15U A20G U49A U80A] was 0.27; that for UAACAGGGGGUCACGGCAGAAGCGCUCACGUCGCUGCCCCUGUCAGACUCUGGUGAUUCUGCGAAUUCUGCUGUAUAUCCC [C11U A15G U25C A35U U48C A57U U80C] was 0.04. As for UAACAGGGGGUCACAGCAGGAGCGUUCACGUCGCAGCCCCUGUCAGAUUCUGGUGAAUCUGCGAAUCCUGCUGUAUAUCUC [C11U A20G U67C], the self-cleavage worked out at 0.63. UAACAGGGGGUCACAGCAGGAGCGUUCACGUCGCAGCCCCUGUCAGAUUCUGGUGAAUCUGCGAAUGCUGCUGUAUAUCUC [C11U A20G U67G]: the self-cleavage turned out to be 0.09. The value for UAACAGGGGGUCUCAGCAGAAGCGUUCACGUCGCAGCCCCAGUCAGAUUCUGGUGAAUCUGCGAAUUCUGCUGUAUAUCUC [C11U A13U U41A] was 0.07; that for UAACAGGGGGUCUCGGCAGAAUCGUUCACGUCACAGCCCCUGUCAGAUUCUGGUAAAUCUGCGAAUUCUGCUGUAUACCUC [C11U A13U A15G G22U G33A G55A U78C] was 0.17; that for UAACAGGGGGUCACGGCAGGAGCGUUCACGUCGCAGCCCCUGUCAAAUUCUGGUGAAUCUGCGAAUUCUGCUGUAUAUCUC [C11U A15G A20G G46A] was 0.06. The value for UAACAGGGGGUCACAGCUGAGGCGUUCAAGUCGCAGCCCCUGUCAGAUUCUGGCGAAUCUGCGAAUUCUGCUGUAUAUCUC [C11U A18U A21G C29A U54C] was 0.04.

For the origin of these results see the RNAGym collection of RNA variant scans (doi:10.1093/nar/gkz1192).
